Results: the supplement of paper PMC8183993
Values joined by “and” are separate entries in the source; they are usually repeats but may differ in a detail not shown here. Identical values can stand only once. Counter-ions that a name gives are not always drawn. ± gives the standard deviation of the averaged measurements. Over roughly 3,100 compounds, “mean cytoplasmic OPP incorporation (global translation) relative to DMSO” has its median near 100; the lowest 2% begin near 56. The list shows a part of the results.

tested on: U2OS; experiment: mean cytoplasmic OPP incorporation (global translation) relative to DMSO (% of DMSO); higher = more protein synthesis; conditions: 10 µM; 24 h
Description: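 Primary image-based screen in U2OS cells: compounds at 10 uM for 24 h, then a 1 h o-propargyl-puromycin (OPP) pulse, click labelling, and high-throughput microscopy. Mean cytoplasmic OPP intensity and nuclei count were normalised to DMSO wells within each plate (DMSO = 100) and averaged over triplicate plates.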

| Structure (SMILES) | mean cytoplasmic OPP incorporation |
| --- | --- |
| CNCCCC1c2ccccc2C=Cc2ccccc21 [Protriptyline hydrochloride] | 107 |
| C[N+]1(CCCCC[N+]2(C)CCCC2)CCCC1 [Pentolinium bitartrate] | 99.8 |
| C=C1C(=O)O[C@@H]2/C=C(\C)CC/C=C(\C)CC[C@@H]12 [Costunolide] | 90.4 ± 5.7 |
| O=C(Nc1ccccc1)c1cc([N+](=O)[O-])ccc1Cl | 94.7 and 80.7 |
| COc1ccc(CCN(C)CCCC(C#N)(c2ccc(OC)c(OC)c2)C(C)C)cc1OC (stereo unspecified) [Verapamil hydrochloride] | 104 |
| Cc1onc(-c2ccccc2)c1-c1ccc(S(N)(=O)=O)cc1 [Valdecoxib] | 102 |
| CCCc1cc(=O)[nH]c(=S)[nH]1 [Propylthiouracil] | 92.5 |
| Cc1sc(N)c(C(=O)c2cccc(C(F)(F)F)c2)c1C | 107 |
| COc1ccc(OC)c2c(=S)c3ccccc3[nH]c12 | 104 |
| c1ccc2c(Cc3c[nH]c4ccccc34)c[nH]c2c1 [Diindolylmethane] | 93.7 |
| CCC(=O)N1CCN(c2ccc(-n3c(=O)ccc4cnc5ccc(-c6cnc7ccccc7c6)cc5c43)cc2C(F)(F)F)CC1 [Torin 1] | 73 |
| CO/N=C(\C(=O)N[C@@H]1C(=O)N2C(C(=O)OCOC(=O)C(C)(C)C)=C(/C=C\c3scnc3C)CS[C@H]12)c1csc(N)n1 [Cefditoren pivoxil] | 105 |
| COc1ccc(-n2[nH]c3c4c(ncc3c2=O)CCCCC4)cc1 | 92.9 |
| N=C(N)c1ccc(OCCCCCOc2ccc(C(=N)N)cc2)cc1 [Pentamidine isethionate] | 98.4 |
| N=C(N)c1ccc(OCCCCCOc2ccc(C(=N)N)cc2)cc1 [Pentamidine] | 104 |
| CCCCC(=O)O[C@H]1CC[C@H]2[C@@H]3CCc4cc(O)ccc4[C@H]3CC[C@]12C [Estradiol Valerate] | 95.6 |
| CCCCC(=O)O[C@H]1CC[C@H]2[C@@H]3CCc4cc(O)ccc4[C@H]3CC[C@]12C [Estradiol valerate] | 101 |
| O=[N+]([O-])c1ccccc1S(=O)(=O)NCC1CCC(CNCC2CCc3ccccc3C2)CC1 (stereo unspecified) [NTNCB hydrochloride] | 114 |
| N#Cc1c(O)c2c(-c3ccc(-c4ccccc4O)cc3)csc2[nH]c1=O | 97.1 and 94 |
| O=C(O)c1cc(O)c2c(c1)C(=O)c1cccc(O)c1C2=O [Rhein (Monorhein)] | 109 |
| Cc1ccc(Nc2c(F)cccc2Cl)c(CC(=O)O)c1 [Lumiracoxib (COX-189)] | 103 |
| O=c1cc(-c2cccc3c2Sc2ccccc2S3)oc(N2CCOCC2)c1 | 102 and 108 |
| Oc1ccc([C@H]2COc3cc(O)ccc3C2)cc1 [Equol] | 99.8 |
| Fc1ccc(C(c2ccc(F)cc2)N2CCN(C/C=C/c3ccccc3)CC2)cc1 [Flunarizine dihydrochloride] | 107 ± 4.4 |
| Nc1nc(Cl)nc2c1ncn2[C@H]1C[C@H](O)[C@@H](CO)O1 [Cladribine] | 79.8 |
| CN[C@@H]1[C@H](O[C@H]2[C@H](O[C@H]3[C@H](O)[C@@H](O)[C@H](N=C(N)N)[C@@H](O)[C@@H]3N=C(N)N)O[C@@H](C)[C@]2(O)C=O)O[C@@H](CO)[C@H](O)[C@H]1O [Streptomycin sulfate] | 98.1 ± 3.8 |

| Structure (SMILES) | mean cytoplasmic OPP incorporation |
| --- | --- |
| N=C(N)NC(=N)Nc1ccccc1 [1-Phenylbiguanide hydrochloride] | 97.1 |
| NCCNC(=O)c1ccc(Cl)cn1 [Lazabemide hydrochloride] | 104 |
| O=C([C@@H](Cc1cccc(C(F)(F)F)c1)NS(=O)(=O)c1cc(F)c2c(c1)CCNC2)N1CCCC1 | 112 |
| COc1cccc2c1C(=O)c1c(O)c3c(c(O)c1C2=O)C[C@@](O)(C(=O)CO)C[C@@H]3O[C@H]1C[C@H](N)[C@H](O)[C@H](C)O1 [Doxorubicin (Adriamycin)] | 67.1 |
| COc1cccc2c1C(=O)c1c(O)c3c(c(O)c1C2=O)C[C@@](O)(C(=O)CO)C[C@@H]3O[C@H]1C[C@H](N)[C@H](O)[C@H](C)O1 [Doxorubicin hydrochloride] | 54.8 ± 17 |
| CCC(=O)O[C@@H](O[P@](=O)(CCCCc1ccccc1)CC(=O)N1C[C@H](C2CCCCC2)C[C@H]1C(=O)O)C(C)C [Fosinopril sodium (Monopril)] | 102 |
| CCC(=O)O[C@@H](O[P@](=O)(CCCCc1ccccc1)CC(=O)N1C[C@H](C2CCCCC2)C[C@H]1C(=O)O)C(C)C [Fosinopril] | 96.7 |
| CC(C)N1Cc2cc(S(C)(=O)=O)ccc2N(CCN2CC=C(c3c[nH]c4cc(F)ccc34)CC2)S1(=O)=O | 106 |
| CC1(C)S[C@@H]2[C@H](NC(=O)[C@H](N)c3ccc(O)cc3)C(=O)N2[C@H]1C(=O)O [Amoxicillin sodium (Amox)] | 100 |
| CC1(C)S[C@@H]2[C@H](NC(=O)[C@H](N)c3ccc(O)cc3)C(=O)N2[C@H]1C(=O)O [Amoxicillin (Amoxycillin)] | 106 |
| CC1(C)S[C@@H]2[C@H](NC(=O)[C@H](N)c3ccc(O)cc3)C(=O)N2[C@H]1C(=O)O [Amoxicillin] | 96.9 |
| COc1cc(-c2cn(C)c(=O)c3cnccc23)c(OC)cc1CN(C)C | 95.8 |
| Cn1cnc2c(NCc3ccccc3)nc(NCCO)nc21 [Olomoucine] | 99.9 |
| Cc1cc(C(=O)NOCCO)c(Nc2ccc(I)cc2F)n(C)c1=O | 90.6 |
| OCCOCCN1CCN(C2=Nc3ccccc3Sc3ccccc32)CC1 [Quetiapine hemifumarate] | 123 |
| NCCNCCNCCNCCN [Tetraethylenepentamine pentahydrochloride] | 109 |
| Clc1cnccn1 [2-Chloropyrazine] | 113 |
| Nc1nc2c(ncn2[C@@H]2O[C@H](CO)[C@@H](O)[C@H]2O)c(=O)[nH]1 [Guanosine] | 106 |
| Cc1cc2c(cc1S(N)(=O)=O)S(=O)(=O)CCC2 [Meticrane] | 99.5 |
| CCn1c2ccccc2c2cc(Nc3ccnc(NCCCN4CCOCC4)n3)ccc21 | 131 |
| O=C1[C@H](Cc2ccc(O)cc2)N2C(=O)CCN(C(=O)NCc3ccccc3)[C@H]2CN1Cc1cccc2ccccc12 | 111 |
| COC(=O)Nc1nc2cc(C(=O)c3ccccc3)ccc2[nH]1 [Mebendazole] | 76 |
| CC1(C)S[C@@H]2[C@H](NC(=O)[C@H](NC(=O)N3CCNC3=O)c3ccccc3)C(=O)N2[C@H]1C(=O)O [Azlocillin sodium salt] | 100.3 ± 0.98 |
| CCOC(=O)[C@H](CCc1ccccc1)N[C@@H](C)C(=O)N1Cc2ccccc2C[C@H]1C(=O)O [Quinapril HCl] | 103 |
| CC(CCc1ccccc1)NCC(O)c1ccc(O)c(C(N)=O)c1 (stereo unspecified) [Labetalol hydrochloride] | 102 |
| O=C(O)c1cccnc1Nc1cccc(C(F)(F)F)c1 [Niflumic acid] | 93.2 ± 6 |

| Structure (SMILES) | mean cytoplasmic OPP incorporation |
| --- | --- |
| Cc1oncc1C(=O)Nc1ccc(C(F)(F)F)cc1 [Leflunomide] | 101 ± 3.8 |
| O=c1[nH]c2cc(C(F)(F)F)c(N3CCOCC3)cc2n(CP(=O)(O)O)c1=O | 101 |
| COc1ccc(C(Cl)=C(c2ccc(OC)cc2)c2ccc(OC)cc2)cc1 [Chlorotrianisene] | 91.4 |
| CN(C)/N=N/c1[nH]cnc1C(N)=O [Dacarbazine] | 87 |
| CC[N+](C)(C)Cc1ccccc1Br [Bretylium tosylate] | 104 |
| CCCCCCCCc1ccc(-c2ccc(C(=O)O)cc2)cc1 | 105 |
| C[N+](C)(C)CCCCCC[N+](C)(C)C [Hexamethonium dibromide dihydrate] | 87.5 |
| CC1C(=O)OC2C(O)C34C5CC(C(C)(C)C)C36C(OC(=O)C6O)OC4(C(=O)O5)C12O (stereo unspecified) [Ginkgolide B] | 94.3 |
| O=c1[nH]ccc2c(S(=O)(=O)N3CCCNCC3)cccc12 [HA 1100 hydrochloride] | 99.3 |
| CN1C(C)(C)CCCC1(C)C [Pempidine tartrate] | 109 |
| Cn1cc(-c2ccc3ncc(Cc4ccc5ncccc5c4)n3n2)cn1 | 123 ± 8.6 |
| CC1(C)Oc2ccc(C#N)cc2[C@@H](N2CCCC2=O)[C@@H]1O [Levcromakalim] | 99.4 |
| Cc1cc(NC(=O)Nc2ccc(N(C)C)cc2)c2cc(F)cc(F)c2n1 | 102 |
| Cc1onc(-c2c(Cl)cccc2Cl)c1C(=O)N[C@@H]1C(=O)N2[C@@H]1SC(C)(C)[C@@H]2C(=O)O [Dicloxacillin sodium salt hydrate] | 93.9 |
| CC(C)(C(=O)O)c1ccc(C(O)CCCN2CCC(C(O)(c3ccccc3)c3ccccc3)CC2)cc1 (stereo unspecified) [Fexofenadine HCl] | 90.6 |
| CC(C)(C(=O)O)c1ccc(C(O)CCCN2CCC(C(O)(c3ccccc3)c3ccccc3)CC2)cc1 (stereo unspecified) [Fexofenadine hydrochloride] | 99.5 |
| O=c1cc(N2CCOCC2)oc2c(-c3cccc4c3sc3ccccc34)cccc12 | 121 |
| NC(N)=S [Thiourea] | 102 |
| COc1cccc(-c2cc(NCc3ccc4c(c3)OCO4)nc(N)n2)c1 | 92.3 |
| COc1ccc([C@@H]2CC(=O)c3c(O)cc(O[C@@H]4O[C@H](CO[C@@H]5O[C@@H](C)[C@H](O)[C@@H](O)[C@H]5O)[C@@H](O)[C@H](O)[C@H]4O)cc3O2)cc1O [Hesperidin] | 101 ± 2.1 |
| O=C(O)COc1ccc(OCCNC[C@H](O)COc2ccccc2)cc1 [ICI 215,001 hydrochloride] | 100 |
| O=C[C@H](O)[C@@H](O)[C@H](O)CO [Xylose] | 93.2 |
| Cc1cc(C(C)(C)C)c(O)c(C)c1CC1=NCCN1 [Oxymetazoline hydrochloride] | 95.4 ± 7.8 |
| CN(C)CCCN1c2ccccc2Sc2ccccc21 [Promazine hydrochloride] | 103 |
